IC50 is the fitted dose that halves viability relative to control wells, and lower means more sensitive; a fit beyond the top or the lowest dose is shown as a bound at that dose. AUC is the area under the same curve over the 256-fold range up to the top dose, as a fraction: 1 means no effect, lower means more sensitive. Any top dose called inferred was calculated from the reported fits.
Key:
Test in all cases: Viability of human cancer cell lines after 72 h of drug (GDSC screen)
CCT007093 = compound: O=C1/C(=C/c2cccs2)CC/C1=C\c1cccs1 [CCT007093]; conditions: top dose 6.6 µM; top dose inferred
Experimental: (§1)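 Human cancer cell lines in 384-well plates, medium with 10% serum, drug for 72 h over a 256-fold dose range (nine 2-fold or five 4-fold steps up to the top dose). Adherent lines were fixed and stained with the nucleic acid dye Syto60, suspension lines read with resazurin; signal relative to control wells, capped at 0 and 100%. One two-parameter sigmoid per drug and line, fitted in a mixed model over all curves with the slope shared within a line.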

KIN001-266 = compound: CCN1CCC(n2cc(CNc3cc(Cl)c4ncc(C#N)c(Nc5ccc(F)c(Cl)c5)c4c3)nn2)CC1 [KIN001-266]; conditions: top dose 20 µM; top dose inferred
Experimental: as §1

QL-XII-47 = compound: C=CC(=O)N1CCc2ccc(-n3c(=O)ccc4cnc5ccc(-c6cnn(C)c6)cc5c43)cc21 [QL-XII-47]; conditions: top dose 10.24 µM; top dose inferred
Experimental: as §1

Row | Cell Line | AUC (CCT007093) | IC50 (CCT007093) | AUC (KIN001-266) | IC50 (KIN001-266) | AUC (QL-XII-47) | IC50 (QL-XII-47)
1 | A549 (lung adenocarcinoma, adherent) | 0.979 | > 6.6 µM | – | – | – | –
2 | BALL-1 (B-cell leukaemia, suspension) | 0.997 | > 6.6 µM | – | – | – | –
3 | BT-549 (breast, adherent) | 0.977 | > 6.6 µM | – | – | – | –
4 | CADO-ES1 (Ewing sarcoma, suspension) | 0.96 | > 6.6 µM | 0.824 | 12.2 µM | 0.516 | 0.71 µM
5 | CHP-134 (neuroblastoma, suspension) | – | – | 0.761 | 8.94 µM | 0.727 | 3.43 µM
6 | CL-34 (large intestine, adherent) | 0.987 | > 6.6 µM | – | – | – | –
7 | CL-40 (large intestine, adherent) | 0.969 | > 6.6 µM | – | – | – | –
8 | CML-T1 (chronic myeloid leukaemia, suspension) | 0.984 | > 6.6 µM | – | – | – | –
9 | COR-L303 (small cell lung carcinoma, suspension) | – | – | 0.872 | 18 µM | 0.602 | 1.2 µM
10 | COR-L311 (small cell lung carcinoma, suspension) | – | – | 0.873 | > 20 µM | 0.304 | 0.172 µM
11 | COR-L321 (lung, suspension) | 0.984 | > 6.6 µM | 0.858 | 16.4 µM | 0.475 | 0.546 µM
12 | CRO-AP2 (B-cell lymphoma, suspension) | 0.989 | > 6.6 µM | – | – | – | –
13 | D-247MG (glioma, adherent) | 0.887 | > 6.6 µM | 0.847 | > 20 µM | 0.968 | > 10.2 µM
14 | D-336MG (glioma, adherent) | 0.955 | > 6.6 µM | 0.882 | > 20 µM | 0.588 | 1.2 µM
15 | D-423MG (glioma, adherent) | 0.96 | > 6.6 µM | 0.834 | 17.3 µM | 0.676 | 2.23 µM
16 | D-566MG (glioma, adherent) | 0.964 | > 6.6 µM | 0.866 | 17.4 µM | 0.728 | 2.82 µM
17 | DIFI (large intestine, adherent) | 0.988 | > 6.6 µM | – | – | – | –
18 | DOV13 (ovary, adherent) | 0.977 | > 6.6 µM | 0.851 | 19.2 µM | 0.971 | > 10.2 µM
19 | EMC-BAC-1 (lung adenocarcinoma, adherent) | – | – | 0.792 | 10.5 µM | 0.655 | 1.84 µM
20 | EMC-BAC-2 (lung adenocarcinoma, adherent) | 0.978 | > 6.6 µM | 0.872 | > 20 µM | 0.711 | 2.87 µM
21 | ESO26 (oesophagus, adherent) | 0.986 | > 6.6 µM | 0.702 | 4.45 µM | 0.511 | 0.684 µM
22 | ESO51 (oesophagus, semi-adherent) | 0.855 | > 6.6 µM | 0.884 | > 20 µM | 0.612 | 1.47 µM
23 | EW-22 (Ewing sarcoma, adherent) | 0.932 | > 6.6 µM | – | – | – | –
24 | FLO-1 (oesophagus, adherent) | 0.975 | > 6.6 µM | 0.799 | 15.1 µM | 0.688 | 2.74 µM
25 | GA-10 (Burkitt lymphoma, suspension) | 0.991 | > 6.6 µM | – | – | – | –
26 | H4 (glioma, adherent) | 0.971 | > 6.6 µM | 0.882 | > 20 µM | 0.824 | 5.98 µM

Row | Cell Line | AUC (CCT007093) | IC50 (CCT007093) | AUC (KIN001-266) | IC50 (KIN001-266) | AUC (QL-XII-47) | IC50 (QL-XII-47)
27 | H2810 (mesothelioma, adherent) | 0.981 | > 6.6 µM | – | – | – | –
28 | HCC-366 (non-small cell lung carcinoma, adherent) | 0.988 | > 6.6 µM | – | – | – | –
29 | Hey (ovary, adherent) | 0.988 | > 6.6 µM | 0.875 | 17.7 µM | 0.724 | 2.65 µM
30 | Hs746T (stomach, adherent) | 0.98 | > 6.6 µM | 0.922 | > 20 µM | 0.572 | 1.08 µM
31 | IGROV-1 (ovary, adherent) | 0.97 | > 6.6 µM | – | – | – | –
32 | JEKO-1 (B-cell lymphoma, suspension) | 0.962 | > 6.6 µM | – | – | – | –
33 | JHOS-2 (ovary, adherent) | 0.977 | > 6.6 µM | 0.66 | 3.76 µM | 0.751 | 3.87 µM
34 | JHOS-3 (ovary, adherent) | 0.98 | > 6.6 µM | 0.917 | > 20 µM | 0.814 | 7.6 µM
35 | JHOS-4 (ovary, adherent) | 0.976 | > 6.6 µM | – | – | – | –
36 | Jurkat (T-cell leukaemia, suspension) | 0.991 | > 6.6 µM | – | – | – | –
37 | K-562 (chronic myeloid leukaemia, suspension) | 0.985 | > 6.6 µM | 0.849 | 14.3 µM | 0.642 | 1.56 µM
38 | KARPAS-1106P (B-cell lymphoma, suspension) | 0.993 | > 6.6 µM | – | – | – | –
39 | KASUMI-1 (acute myeloid leukaemia, suspension) | 0.944 | > 6.6 µM | – | – | 0.455 | 0.484 µM
40 | KATOIII (stomach, semi-adherent) | 0.99 | > 6.6 µM | – | – | – | –
41 | KMRC-20 (kidney, adherent) | 0.989 | > 6.6 µM | 0.92 | > 20 µM | 0.901 | > 10.2 µM
42 | KMS-11 (myeloma, suspension) | 0.981 | > 6.6 µM | 0.877 | 15.1 µM | 0.53 | 0.761 µM
43 | KNS-62 (lung squamous cell carcinoma, adherent) | 0.95 | > 6.6 µM | – | – | – | –
44 | KYAE-1 (oesophagus, suspension) | 0.983 | > 6.6 µM | 0.817 | 12.7 µM | 0.421 | 0.379 µM
45 | MEL-HO (melanoma, adherent) | 0.983 | > 6.6 µM | – | – | – | –
46 | MHH-CALL-2 (B-cell leukaemia, suspension) | 0.991 | > 6.6 µM | – | – | – | –
47 | MKN7 (stomach, adherent) | 0.933 | > 6.6 µM | – | – | – | –
48 | MM1S (myeloma, suspension) | 0.982 | > 6.6 µM | – | – | – | –
49 | MOLM-16 (acute myeloid leukaemia, suspension) | 0.945 | > 6.6 µM | – | – | – | –
50 | MOLT-13 (T-cell lymphoblastic leukaemia, suspension) | 0.985 | > 6.6 µM | 0.88 | 16.4 µM | 0.578 | 1.02 µM
51 | NB17 (neuroblastoma, adherent) | – | – | 0.795 | 10.9 µM | 0.984 | > 10.2 µM
52 | NCC010 (kidney, adherent) | 0.945 | > 6.6 µM | – | – | – | –

Row | Cell Line | AUC (CCT007093) | IC50 (CCT007093) | AUC (KIN001-266) | IC50 (KIN001-266) | AUC (QL-XII-47) | IC50 (QL-XII-47)
53 | NCC021 (kidney, adherent) | 0.985 | > 6.6 µM | 0.866 | > 20 µM | 0.845 | 9.26 µM
54 | NCI-H146 (small cell lung carcinoma, suspension) | 0.994 | > 6.6 µM | – | – | – | –
55 | NCI-H508 (large intestine, semi-adherent) | 0.938 | > 6.6 µM | – | – | – | –
56 | NCI-H835 (lung carcinoid, suspension) | 0.99 | > 6.6 µM | – | – | – | –
57 | NCI-H929 (myeloma, suspension) | 0.966 | > 6.6 µM | – | – | – | –
58 | NCI-H1105 (small cell lung carcinoma, suspension) | 0.993 | > 6.6 µM | – | – | – | –
59 | NCI-H1341 (small cell lung carcinoma, suspension) | 0.991 | > 6.6 µM | – | – | – | –
60 | NCI-H1650 (lung adenocarcinoma, adherent) | 0.96 | > 6.6 µM | – | – | – | –
61 | NCI-H2066 (small cell lung carcinoma, adherent) | 0.965 | > 6.6 µM | – | – | – | –
62 | NCI-N87 (stomach, adherent) | 0.935 | > 6.6 µM | – | – | – | –
63 | OCI-LY7 (B-cell lymphoma, suspension) | 0.997 | > 6.6 µM | – | – | – | –
64 | PWR-1E (prostate, adherent) | 0.987 | > 6.6 µM | – | – | – | –
65 | RCH-ACV (B-cell leukaemia, suspension) | 0.989 | > 6.6 µM | – | – | – | –
66 | RH-18 (rhabdomyosarcoma, adherent) | 0.975 | > 6.6 µM | – | – | 0.829 | 7.68 µM
67 | RL95-2 (endometrium, adherent) | – | – | 0.868 | 18 µM | 0.961 | > 10.2 µM
68 | SK-GT-2 (stomach, adherent) | 0.978 | > 6.6 µM | – | – | – | –
69 | SK-MEL-31 (melanoma, adherent) | 0.985 | > 6.6 µM | – | – | – | –
70 | SKM-1 (haematopoietic neoplasm, suspension) | 0.887 | > 6.6 µM | – | – | – | –
71 | SNU-175 (large intestine, suspension) | – | – | 0.871 | 16.9 µM | 0.775 | 3.8 µM
72 | SNU-1040 (large intestine, adherent) | – | – | 0.785 | 11.9 µM | 0.569 | 1.05 µM
73 | SUP-B8 (B-cell leukaemia, suspension) | 0.989 | > 6.6 µM | – | – | – | –
74 | TC-YIK (cervix, suspension) | 0.979 | > 6.6 µM | – | – | – | –
75 | VMRC-LCD (lung adenocarcinoma, adherent) | 0.993 | > 6.6 µM | – | – | – | –
76 | YMB-1-E (breast, adherent) | – | – | 0.891 | > 20 µM | 0.859 | > 10.2 µM
77 | ZR-75-30 (breast, adherent) | 0.973 | > 6.6 µM | – | – | – | –

From the supplement of paper PMC4967469
